{"source": "the supplement of paper PMC9588766", "note": "Counter-ions that a name gives are not always drawn. Whole data set: some 1,900 compounds, median “cell viability of compound + 1 nM pemigatinib relative to pemigatinib-only (DMSO) wells” near 0.95, cut for the lowest 2% near 0.22. Some of the results follow.", "data": [{"test_system": "PDC-DUC18828", "experiment": "cell viability of compound + 1 nM pemigatinib relative to pemigatinib-only (DMSO) wells (fraction); PDC-DUC18828 is a patient-derived cholangiocarcinoma cell line; higher = less growth inhibition", "conditions": "first compound 1 µM; pemigatinib concentration 1 nM; 72 h", "method": "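Selleck Bioactive library screen in the patient-derived FGFR2 fusion-positive ICC cell line PDC-DUC18828 (500 cells/well). Each compound was tested at 1 uM with 1 nM pemigatinib, in triplicate, for 72 h. Viability was read by CellTiter-Glo and normalised to plate DMSO controls. Value is the paper's averaged normalised viability.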", "values": [{"compound": "COc1ccc2ccc(=O)oc2c1CC=C(C)C", "note": "[Osthole] + CCN1C(=O)N(c2c(F)c(OC)cc(OC)c2F)Cc2cnc3[nH]c(CN4CCOCC4)cc3c21 [pemigatinib]", "cell viability": 0.951}, {"compound": "CNS(=O)(=O)CCc1ccc2[nH]cc(C3CCN(C)CC3)c2c1", "note": "[Naratriptan] + CCN1C(=O)N(c2c(F)c(OC)cc(OC)c2F)Cc2cnc3[nH]c(CN4CCOCC4)cc3c21 [pemigatinib]", "cell viability": 1.03}, {"compound": "CC(=O)Oc1ccccc1C(=O)O", "note": "[Aspirin] + CCN1C(=O)N(c2c(F)c(OC)cc(OC)c2F)Cc2cnc3[nH]c(CN4CCOCC4)cc3c21 [pemigatinib]", "cell viability": 0.856}, {"compound": "N#CSc1cc(SC#N)c(N)nc1N", "note": "+ CCN1C(=O)N(c2c(F)c(OC)cc(OC)c2F)Cc2cnc3[nH]c(CN4CCOCC4)cc3c21 [pemigatinib]", "cell viability": 0.965}, {"compound": "CCCCc1nc2cc(/C=C/C(=O)NO)ccc2n1CCN(CC)CC", "note": "[Pracinostat (SB939)] + CCN1C(=O)N(c2c(F)c(OC)cc(OC)c2F)Cc2cnc3[nH]c(CN4CCOCC4)cc3c21 [pemigatinib]", "cell viability": 0.463}, {"compound": "O=C(O)/C=C/c1ccc(O)c(O)c1", "note": "[Caffeic Acid] + CCN1C(=O)N(c2c(F)c(OC)cc(OC)c2F)Cc2cnc3[nH]c(CN4CCOCC4)cc3c21 [pemigatinib]", "cell viability": 0.932}, {"compound": "CC1(C)CC(=O)c2c(C(F)(F)F)nn(-c3ccc(C(N)=O)c(N[C@H]4CC[C@H](O)CC4)c3)c2C1", "note": "+ CCN1C(=O)N(c2c(F)c(OC)cc(OC)c2F)Cc2cnc3[nH]c(CN4CCOCC4)cc3c21 [pemigatinib]", "cell viability": 0.295}, {"compound": "COc1cc2nc(N(C)CCCNC(=O)C3CCCO3)nc(N)c2cc1OC", "note": "(stereo not drawn) [Alfuzosin HCl] + CCN1C(=O)N(c2c(F)c(OC)cc(OC)c2F)Cc2cnc3[nH]c(CN4CCOCC4)cc3c21 [pemigatinib]", "cell viability": 0.928}, {"compound": "O=C(NO)c1cccc(C(=O)NCCc2ccccc2)c1", "note": "+ CCN1C(=O)N(c2c(F)c(OC)cc(OC)c2F)Cc2cnc3[nH]c(CN4CCOCC4)cc3c21 [pemigatinib]", "cell viability": 0.859}, {"compound": "N=C(N)Nc1ccc(C(=O)Oc2ccc3cc(C(=N)N)ccc3c2)cc1", "note": "[Nafamostat Mesylate] + CCN1C(=O)N(c2c(F)c(OC)cc(OC)c2F)Cc2cnc3[nH]c(CN4CCOCC4)cc3c21 [pemigatinib]", "cell viability": 1.01}, {"compound": "NC(=O)c1nc(F)cnc1O", "note": "[Favipiravir (T-705)] + CCN1C(=O)N(c2c(F)c(OC)cc(OC)c2F)Cc2cnc3[nH]c(CN4CCOCC4)cc3c21 [pemigatinib]", "cell viability": 0.964}, {"compound": "CC(C)n1nc(-c2ccc3oc(N)nc3c2)c2c(N)ncnc21", "note": "+ CCN1C(=O)N(c2c(F)c(OC)cc(OC)c2F)Cc2cnc3[nH]c(CN4CCOCC4)cc3c21 [pemigatinib]", "cell viability": 0.196}, {"compound": "O=C(O)c1cc(C(F)(F)F)ccc1N1CC[C@H](OCc2ccccn2)C1", "note": "+ CCN1C(=O)N(c2c(F)c(OC)cc(OC)c2F)Cc2cnc3[nH]c(CN4CCOCC4)cc3c21 [pemigatinib]", "cell viability": 0.997}, {"compound": "N[C@@H](Cc1c[nH]c2ccc(O)cc12)C(=O)O", "note": "[5-hydroxytryptophan (5-HTP)] + CCN1C(=O)N(c2c(F)c(OC)cc(OC)c2F)Cc2cnc3[nH]c(CN4CCOCC4)cc3c21 [pemigatinib]", "cell viability": 0.93}, {"compound": "CC(=O)Nc1nc2c(Oc3cc(-c4ccc(C(F)(F)F)cc4)ncn3)cccc2s1", "note": "+ CCN1C(=O)N(c2c(F)c(OC)cc(OC)c2F)Cc2cnc3[nH]c(CN4CCOCC4)cc3c21 [pemigatinib]", "cell viability": 0.993}, {"compound": "Cn1cc(-c2cnn3c(N)c(Br)c([C@@H]4CCCNC4)nc23)cn1", "note": "+ CCN1C(=O)N(c2c(F)c(OC)cc(OC)c2F)Cc2cnc3[nH]c(CN4CCOCC4)cc3c21 [pemigatinib]", "cell viability": 0.9}, {"compound": "O=C(O)COCCN1CCN(C(c2ccccc2)c2ccc(Cl)cc2)CC1", "note": "(stereo not drawn) [Cetirizine DiHCl] + CCN1C(=O)N(c2c(F)c(OC)cc(OC)c2F)Cc2cnc3[nH]c(CN4CCOCC4)cc3c21 [pemigatinib]", "cell viability": 0.984}, {"compound": "C=C1C[C@@]2(O)O[C@@]3(C[C@H]2C(C)C)[C@@H](C)CC[C@@H]13", "note": "[Curcumol] + CCN1C(=O)N(c2c(F)c(OC)cc(OC)c2F)Cc2cnc3[nH]c(CN4CCOCC4)cc3c21 [pemigatinib]", "cell viability": 0.937}, {"compound": "C=CC(=O)Nc1cccc(Nc2nc(Nc3ccc(Oc4ccnc(C(=O)NC)c4)cc3)ncc2F)c1", "note": "+ CCN1C(=O)N(c2c(F)c(OC)cc(OC)c2F)Cc2cnc3[nH]c(CN4CCOCC4)cc3c21 [pemigatinib]", "cell viability": 0.899}, {"compound": "CCCSc1nc(N[C@@H]2C[C@H]2c2ccc(F)c(F)c2)c2nnn([C@@H]3C[C@H](OCCO)[C@@H](O)[C@H]3O)c2n1", "note": "[Ticagrelor] + CCN1C(=O)N(c2c(F)c(OC)cc(OC)c2F)Cc2cnc3[nH]c(CN4CCOCC4)cc3c21 [pemigatinib]", "cell viability": 0.892}, {"compound": "COc1ccc(-c2ccc3ncc4c(c3c2)n(-c2ccc(N3CCNCC3)c(C(F)(F)F)c2)c(=O)n4C)cn1", "note": "+ CCN1C(=O)N(c2c(F)c(OC)cc(OC)c2F)Cc2cnc3[nH]c(CN4CCOCC4)cc3c21 [pemigatinib]", "cell viability": 0.0142}, {"compound": "CC(=O)O[C@]1(C(C)=O)CC[C@H]2[C@@H]3C=C(Cl)C4=CC(=O)[C@@H]5C[C@@H]5[C@]4(C)[C@H]3CC[C@@]21C", "note": "[Cyproterone Acetate] + CCN1C(=O)N(c2c(F)c(OC)cc(OC)c2F)Cc2cnc3[nH]c(CN4CCOCC4)cc3c21 [pemigatinib]", "cell viability": 0.955}, {"compound": "CC(C)c1cc(-c2n[nH]c(=O)n2-c2ccc3c(ccn3C)c2)c(O)cc1O", "note": "[Ganetespib (STA-9090)] + CCN1C(=O)N(c2c(F)c(OC)cc(OC)c2F)Cc2cnc3[nH]c(CN4CCOCC4)cc3c21 [pemigatinib]", "cell viability": 0.318}, {"compound": "N[C@H]1C[C@@H]1c1ccc(-c2cccc(O)c2)cc1", "note": "+ CCN1C(=O)N(c2c(F)c(OC)cc(OC)c2F)Cc2cnc3[nH]c(CN4CCOCC4)cc3c21 [pemigatinib]", "cell viability": 0.993}, {"compound": "CC(CCc1ccccc1)NCC(O)c1ccc(O)c(C(N)=O)c1", "note": "(stereo not drawn) [Labetalol HCl] + CCN1C(=O)N(c2c(F)c(OC)cc(OC)c2F)Cc2cnc3[nH]c(CN4CCOCC4)cc3c21 [pemigatinib]", "cell viability": 1}, {"compound": "CCOC(=O)[C@H](CCc1ccccc1)N[C@@H](C)C(=O)N1Cc2ccccc2C[C@H]1C(=O)O", "note": "[Quinapril HCl] + CCN1C(=O)N(c2c(F)c(OC)cc(OC)c2F)Cc2cnc3[nH]c(CN4CCOCC4)cc3c21 [pemigatinib]", "cell viability": 0.965}, {"compound": "Cc1oncc1C(=O)Nc1ccc(C(F)(F)F)cc1", "note": "[Leflunomide] + CCN1C(=O)N(c2c(F)c(OC)cc(OC)c2F)Cc2cnc3[nH]c(CN4CCOCC4)cc3c21 [pemigatinib]", "cell viability": 0.954}, {"compound": "O=C(O)c1cccnc1Nc1cccc(C(F)(F)F)c1", "note": "[Niflumic acid] + CCN1C(=O)N(c2c(F)c(OC)cc(OC)c2F)Cc2cnc3[nH]c(CN4CCOCC4)cc3c21 [pemigatinib]", "cell viability": 0.839}, {"compound": "CC1CC(OC(=O)C(O)c2ccccc2)CC(C)(C)C1", "note": "(stereo not drawn) [Cyclandelate] + CCN1C(=O)N(c2c(F)c(OC)cc(OC)c2F)Cc2cnc3[nH]c(CN4CCOCC4)cc3c21 [pemigatinib]", "cell viability": 0.966}, {"compound": "CC1C(=O)OC2C(O)C34C5CC(C(C)(C)C)C36C(OC(=O)C6O)OC4(C(=O)O5)C12O", "note": "(stereo not drawn) [Ginkgolide B] + CCN1C(=O)N(c2c(F)c(OC)cc(OC)c2F)Cc2cnc3[nH]c(CN4CCOCC4)cc3c21 [pemigatinib]", "cell viability": 0.99}, {"compound": "CN(C)/N=N/c1[nH]cnc1C(N)=O", "note": "[Dacarbazine] + CCN1C(=O)N(c2c(F)c(OC)cc(OC)c2F)Cc2cnc3[nH]c(CN4CCOCC4)cc3c21 [pemigatinib]", "cell viability": 0.924}, {"compound": "Cc1onc(-c2c(Cl)cccc2Cl)c1C(=O)N[C@@H]1C(=O)N2[C@@H]1SC(C)(C)[C@@H]2C(=O)O", "note": "[Dicloxacillin Sodium] + CCN1C(=O)N(c2c(F)c(OC)cc(OC)c2F)Cc2cnc3[nH]c(CN4CCOCC4)cc3c21 [pemigatinib]", "cell viability": 1.01}, {"compound": "Cc1cc(NC(=O)Nc2ccc(N(C)C)cc2)c2cc(F)cc(F)c2n1", "note": "+ CCN1C(=O)N(c2c(F)c(OC)cc(OC)c2F)Cc2cnc3[nH]c(CN4CCOCC4)cc3c21 [pemigatinib]", "cell viability": 0.939}, {"compound": "Cn1cc(-c2ccc3ncc(Cc4ccc5ncccc5c4)n3n2)cn1", "note": "+ CCN1C(=O)N(c2c(F)c(OC)cc(OC)c2F)Cc2cnc3[nH]c(CN4CCOCC4)cc3c21 [pemigatinib]", "cell viability": 1.01}, {"compound": "Nc1nc2c(ncn2[C@@H]2O[C@H](CO)[C@@H](O)[C@H]2O)c(=O)[nH]1", "note": "[Guanosine] + CCN1C(=O)N(c2c(F)c(OC)cc(OC)c2F)Cc2cnc3[nH]c(CN4CCOCC4)cc3c21 [pemigatinib]", "cell viability": 0.943}, {"compound": "CC(C)OC(=O)[C@H](C)N[P@](=O)(OC[C@H]1O[C@@H](n2ccc(=O)[nH]c2=O)[C@](C)(F)[C@@H]1O)Oc1ccccc1", "note": "[Sofosbuvir (PSI-7977, GS-7977)] + CCN1C(=O)N(c2c(F)c(OC)cc(OC)c2F)Cc2cnc3[nH]c(CN4CCOCC4)cc3c21 [pemigatinib]", "cell viability": 0.92}, {"compound": "O=C1[C@H](Cc2ccc(O)cc2)N2C(=O)CCN(C(=O)NCc3ccccc3)[C@H]2CN1Cc1cccc2ccccc12", "note": "+ CCN1C(=O)N(c2c(F)c(OC)cc(OC)c2F)Cc2cnc3[nH]c(CN4CCOCC4)cc3c21 [pemigatinib]", "cell viability": 0.951}, {"compound": "CCn1c2ccccc2c2cc(Nc3ccnc(NCCCN4CCOCC4)n3)ccc21", "note": "+ CCN1C(=O)N(c2c(F)c(OC)cc(OC)c2F)Cc2cnc3[nH]c(CN4CCOCC4)cc3c21 [pemigatinib]", "cell viability": 0.985}]}]}
